# From the supplement of paper PMC12217912
# This is one part of the list. The full chains were built here from the parent and the listed change. Inactive controls read about 0.05.
# B1: TEV protease; numbered along this chain (parent)
# chain: MGESLFKGPRDYNPISSSICHLTNESDGHTTSLYGIGFGPFIITNKHLFRRNNGTLVVQSLHGVFKVKDTTTLQQHLVDGRDMIIIRMPKDFPPFPQKLKFREPQREERICLVTTNFQTKSMSSMVSDTSCTFPSGDGIFWKHWIQTKDGQCGSPLVSTRDGFIVGIHSASNFTNTNNYFTSVPKNFMELLTNQEAQQWVSGWRLNADSVLWGGHKVFMVKPEEPFQPVKEATQL
# Variants of: B1
# Assay: raw area under fraction-flipped curve 0-4 h after induction (AUC4h, not background-subtracted), DNA-recorder readout of cleavage of the substrate (dimensionless); higher = more cleavage of the substrate by the protease variant
# Details: temperature: 34 °C; time window: 0-4 h after rhamnose induction
# 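Also: Bxb1 expression induced with 0.2% (w/v) L-rhamnose at OD600 near 0.5, cultures sampled hourly, flipped fraction per protease–substrate barcode pair counted by paired-end Illumina sequencing.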
Variant,area with substrate DNLYFQS,area with substrate FNLYFQS,area with substrate GNLYFQS,area with substrate HNLYFQS,area with substrate INLYFQS,area with substrate KNLYFQS,area with substrate LNLYFQS,area with substrate MNLYFQS,area with substrate PNLYFQS,area with substrate SNLYFQS,area with substrate TNLYFQS,area with substrate VNLYFQS,area with substrate WNLYFQS,area with substrate YNLYFQS,area with substrate RNLYFQS,area with substrate NNLYFQS,area with substrate QNLYFQS
MGESLFKGPRDYNPISSSICHLTNESDGHTTSLYGIGFGPFIITNKHNFRRNNGTLVVQSLHGVFKVKDTTTLQQHLVDGRDMIIIRMPKDFPPFPQKLKFREPQREERICLVTTNFQTKSMSSMVSDTSCTFPSGDGIFWKHWIQTKDGQCGSPLVSTRDGFIVGIHSASNFTNTNNYFTSVPKNFMELLTNQEAQQWVSGWRLNADSVLWGGHKVFMVKPEEPFQPVKEATQL [L48N],0.0544,0.0652,0.0598,0.05,0.0573,0.0494,0.0579,0.0635,0.0553,0.055,0.0379,0.0685,0.0656,0.0605,–,–,–
MGESLFKGPRDYNPISSSICHLTNESDGHTTSLYGIGFGPFIITNKHLFRRNNGTIVVQSLHGVFKVKDTTTLQQHLVDGRDMIIIRMPKDFPPFPQKLKFREPQREERICLVTTNFQTKSMSSMVSDTSCTFPSGDGIFWKHWIQTKDGQCGSPLVSTRDGFIVGIHSASNFTNTNNYFTSVPKNFMELLTNQEAQQWVSGWRLNADSVLWGGHKVFMVKPEEPFQPVKEATQL [L56I],0.0597,–,–,–,0.0689,0.0474,0.0661,0.0599,0.0613,0.0707,0.0606,0.0744,0.0498,0.021,0.0538,–,–
MGESLFKGPRDYNPISSSICHLTNESDGHTTSLYGIGFGPFIITNKHLFRRNNGTLVVQSLHGLFKVKDTTTLQQHLVDGRDMIIIRMPKDFPPFPQKLKFREPQREERICLVTTNFQTKSMSSMVSDTSCTFPSGDGIFWKHWIQTKDGQCGSPLVSTRDGFIVGIHSASNFTNTNNYFTSVPKNFMELLTNQEAQQWVSGWRLNADSVLWGGHKVFMVKPEEPFQPVKEATQL [V64L],0.0647,–,0.0509,0.0903,0.0626,–,0.0677,0.0694,0.0326,–,0.0384,–,–,0.0572,–,–,–
MGESLFKGPRDYNPISSSICHLTNESDGHTTSLYGIGFGPFIITNKHLFRRNNGTLVVQSLHGWFKVKDTTTLQQHLVDGRDMIIIRMPKDFPPFPQKLKFREPQREERICLVTTNFQTKSMSSMVSDTSCTFPSGDGIFWKHWIQTKDGQCGSPLVSTRDGFIVGIHSASNFTNTNNYFTSVPKNFMELLTNQEAQQWVSGWRLNADSVLWGGHKVFMVKPEEPFQPVKEATQL [V64W],0.0645,–,–,–,–,0.0574,0.0563,–,0.0686,–,0.0774,0.0834,0.0614,–,–,0.0522,–
MGESLFKGPRDYNPISSSICHLTNESDGHTTSLYGIGFGPFIITNKHLFRRNNGTLVVQSLHGVFKVKDTTCLQQHLVDGRDMIIIRMPKDFPPFPQKLKFREPQREERICLVTTNFQTKSMSSMVSDTSCTFPSGDGIFWKHWIQTKDGQCGSPLVSTRDGFIVGIHSASNFTNTNNYFTSVPKNFMELLTNQEAQQWVSGWRLNADSVLWGGHKVFMVKPEEPFQPVKEATQL [T72C],0.106,–,0.0623,0.0489,0.0496,0.0752,–,0.0562,0.0481,–,0.0744,–,0.0674,–,–,0.0606,–
MGESLFKGPRDYNPISSSICHLTNESDGHTTSLYGIGFGPFIITNKHLFRRNNGTLVVQSLHGVFKVKDTTRLQQHLVDGRDMIIIRMPKDFPPFPQKLKFREPQREERICLVTTNFQTKSMSSMVSDTSCTFPSGDGIFWKHWIQTKDGQCGSPLVSTRDGFIVGIHSASNFTNTNNYFTSVPKNFMELLTNQEAQQWVSGWRLNADSVLWGGHKVFMVKPEEPFQPVKEATQL [T72R],0.066,0.0732,–,0.0678,–,0.0893,0.0497,–,0.0909,–,0.104,–,–,0.0599,–,0.0638,–
MGESLFKGPRDYNPISSSICHLTNESDGHTTSLYGIGFGPFIITNKHLFRRNNGTLVVQSLHGVFKVKDTTTLQQHLVDGRDMIIIRMPKDFPPFMQKLKFREPQREERICLVTTNFQTKSMSSMVSDTSCTFPSGDGIFWKHWIQTKDGQCGSPLVSTRDGFIVGIHSASNFTNTNNYFTSVPKNFMELLTNQEAQQWVSGWRLNADSVLWGGHKVFMVKPEEPFQPVKEATQL [P96M],0.0618,–,0.0687,0.0657,–,–,0.0675,0.0567,0.0525,0.0693,–,–,0.0547,0.0717,–,–,0.0611
MGESLFKGPRDYNPISSSICHLTNESDGHTTSLYGIGFGPFIITNKHLFRRNNGTLVVQSLHGVFKVKDTTTLQQHLVDGRDMIIIRMPKDFPPFPQKLKFREDQREERICLVTTNFQTKSMSSMVSDTSCTFPSGDGIFWKHWIQTKDGQCGSPLVSTRDGFIVGIHSASNFTNTNNYFTSVPKNFMELLTNQEAQQWVSGWRLNADSVLWGGHKVFMVKPEEPFQPVKEATQL [P104D],0.0537,–,0.0313,0.0514,–,0.0567,–,0.0534,0.0466,0.0528,0.056,–,0.0494,–,0.0655,–,–
MGESLFKGPRDYNPISSSICHLTNESDGHTTSLYGIGFGPFIITNKHLFRRNNGTLVVQSLHGVFKVKDTTTLQQHLVDGRDMIIIRMPKDFPPFPQKLKFRETQREERICLVTTNFQTKSMSSMVSDTSCTFPSGDGIFWKHWIQTKDGQCGSPLVSTRDGFIVGIHSASNFTNTNNYFTSVPKNFMELLTNQEAQQWVSGWRLNADSVLWGGHKVFMVKPEEPFQPVKEATQL [P104T],0.0431,–,0.0396,0.0384,0.0696,–,0.0567,–,0.063,–,0.0529,–,0.0529,0.0463,–,–,–
MGESLFKGPRDYNPISSSICHLTNESDGHTTSLYGIGFGPFIITNKHLFRRNNGTLVVQSLHGVFKVKDTTTLQQHLVDGRDMIIIRMPKDFPPFPQKLKFREPQREERICSVTTNFQTKSMSSMVSDTSCTFPSGDGIFWKHWIQTKDGQCGSPLVSTRDGFIVGIHSASNFTNTNNYFTSVPKNFMELLTNQEAQQWVSGWRLNADSVLWGGHKVFMVKPEEPFQPVKEATQL [L112S],0.0418,–,–,0.0352,0.0542,–,0.0541,0.0478,0.0645,–,0.0575,–,0.055,0.0447,–,0.0622,–
MGESLFKGPRDYNPISSSICHLTNESDGHTTSLYGIGFGPFIITNKHLFRRNNGTLVVQSLHGVFKVKDTTTLQQHLVDGRDMIIIRMPKDFPPFPQKLKFREPQREERICYVTTNFQTKSMSSMVSDTSCTFPSGDGIFWKHWIQTKDGQCGSPLVSTRDGFIVGIHSASNFTNTNNYFTSVPKNFMELLTNQEAQQWVSGWRLNADSVLWGGHKVFMVKPEEPFQPVKEATQL [L112Y],0.0665,0.065,0.0639,0.0688,–,0.0654,0.0544,0.0542,–,0.0567,0.0591,–,0.0554,0.0481,–,0.072,–
MGESLFKGPRDYNPISSSICHLTNESDGHTTSLYGIGFGPFIITNKHLFRRNNGTLVVQSLHGVFKVKDTTTLQQHLVDGRDMIIIRMPKDFPPFPQKLKFREPQREERICLVTTNFQTGSMSSMVSDTSCTFPSGDGIFWKHWIQTKDGQCGSPLVSTRDGFIVGIHSASNFTNTNNYFTSVPKNFMELLTNQEAQQWVSGWRLNADSVLWGGHKVFMVKPEEPFQPVKEATQL [K120G],0.0668,0.0791,0.076,0.0696,–,0.0285,–,–,0.05,–,0.0681,–,0.0689,–,–,–,0.0524
MGESLFKGPRDYNPISSSICHLTNESDGHTTSLYGIGFGPFIITNKHLFRRNNGTLVVQSLHGVFKVKDTTTLQQHLVDGRDMIIIRMPKDFPPFPQKLKFREPQREERICLVTTNFQTYSMSSMVSDTSCTFPSGDGIFWKHWIQTKDGQCGSPLVSTRDGFIVGIHSASNFTNTNNYFTSVPKNFMELLTNQEAQQWVSGWRLNADSVLWGGHKVFMVKPEEPFQPVKEATQL [K120Y],0.0723,–,0.0681,0.0635,0.0451,0.0646,–,0.0566,–,0.0381,0.0661,–,0.061,0.057,–,–,–
MGESLFKGPRDYNPISSSICHLTNESDGHTTSLYGIGFGPFIITNKHLFRRNNGTLVVQSLHGVFKVKDTTTLQQHLVDGRDMIIIRMPKDFPPFPQKLKFREPQREERICLVTTNFQTKSMSSMVSATSCTFPSGDGIFWKHWIQTKDGQCGSPLVSTRDGFIVGIHSASNFTNTNNYFTSVPKNFMELLTNQEAQQWVSGWRLNADSVLWGGHKVFMVKPEEPFQPVKEATQL [D128A],0.0935,–,0.105,0.0612,0.0494,0.0742,0.0697,–,–,0.0776,–,–,0.0564,–,–,–,–
MGESLFKGPRDYNPISSSICHLTNESDGHTTSLYGIGFGPFIITNKHLFRRNNGTLVVQSLHGVFKVKDTTTLQQHLVDGRDMIIIRMPKDFPPFPQKLKFREPQREERICLVTTNFQTKSMSSMVSRTSCTFPSGDGIFWKHWIQTKDGQCGSPLVSTRDGFIVGIHSASNFTNTNNYFTSVPKNFMELLTNQEAQQWVSGWRLNADSVLWGGHKVFMVKPEEPFQPVKEATQL [D128R],0.118,–,0.0742,0.0716,0.0809,0.0652,–,–,0.0735,–,–,–,0.065,–,0.0664,–,0.0814
MGESLFKGPRDYNPISSSICHLTNESDGHTTSLYGIGFGPFIITNKHLFRRNNGTLVVQSLHGVFKVKDTTTLQQHLVDGRDMIIIRMPKDFPPFPQKLKFREPQREERICLVTTNFQTKSMSSMVSDTSCTFPSGDGIFWKHVIQTKDGQCGSPLVSTRDGFIVGIHSASNFTNTNNYFTSVPKNFMELLTNQEAQQWVSGWRLNADSVLWGGHKVFMVKPEEPFQPVKEATQL [W144V],0.0574,0.0557,–,0.0645,–,–,0.0716,–,0.0646,–,–,–,0.0677,0.0649,–,0.0636,–
MGESLFKGPRDYNPISSSICHLTNESDGHTTSLYGIGFGPFIITNKHLFRRNNGTLVVQSLHGVFKVKDTTTLQQHLVDGRDMIIIRMPKDFPPFPQKLKFREPQREERICLVTTNFQTKSMSSMVSDTSCTFPSGDGIFWKHWIQTKDGQDGSPLVSTRDGFIVGIHSASNFTNTNNYFTSVPKNFMELLTNQEAQQWVSGWRLNADSVLWGGHKVFMVKPEEPFQPVKEATQL [C152D],0.0398,0.0854,–,0.0578,–,–,–,0.0301,0.0574,0.0447,0.0572,–,0.0541,0.0588,–,–,–
MGESLFKGPRDYNPISSSICHLTNESDGHTTSLYGIGFGPFIITNKHLFRRNNGTLVVQSLHGVFKVKDTTTLQQHLVDGRDMIIIRMPKDFPPFPQKLKFREPQREERICLVTTNFQTKSMSSMVSDTSCTFPSGDGIFWKHWIQTKDGQCGSPLVSTRDGFIVGIGSASNFTNTNNYFTSVPKNFMELLTNQEAQQWVSGWRLNADSVLWGGHKVFMVKPEEPFQPVKEATQL [H168G],0.0586,–,0.0576,0.0567,–,0.0701,–,–,0.0586,0.0753,–,–,–,–,–,–,–
MGESLFKGPRDYNPISSSICHLTNESDGHTTSLYGIGFGPFIITNKHLFRRNNGTLVVQSLHGVFKVKDTTTLQQHLVDGRDMIIIRMPKDFPPFPQKLKFREPQREERICLVTTNFQTKSMSSMVSDTSCTFPSGDGIFWKHWIQTKDGQCGSPLVSTRDGFIVGIHSASNFTNVNNYFTSVPKNFMELLTNQEAQQWVSGWRLNADSVLWGGHKVFMVKPEEPFQPVKEATQL [T176V],0.0825,–,–,–,–,–,0.0586,–,–,–,–,–,–,0.0579,–,–,–
MGESLFKGPRDYNPISSSICHLTNESDGHTTSLYGIGFGPFIITNKHLFRRNNGTLVVQSLHGVFKVKDTTTLQQHLVDGRDMIIIRMPKDFPPFPQKLKFREPQREERICLVTTNFQTKSMSSMVSDTSCTFPSGDGIFWKHWIQTKDGQCGSPLVSTRDGFIVGIHSASNFTNTNNYFTSVWKNFMELLTNQEAQQWVSGWRLNADSVLWGGHKVFMVKPEEPFQPVKEATQL [P184W],0.0584,0.0513,0.0625,0.0558,0.0433,0.0646,0.0617,–,0.0572,0.0289,0.053,–,0.0486,0.0577,–,0.0643,–
